This is one part of the list.
B1: PhoQ; a variant is named by its letters at X, in order, P23837 (parent)
chain: MKKLLRLFFPLSLRVRFLLATAAVVLVLSLAYGMVALIGYSVSFDKTTFRLLRGESNLFYTLAKWENNKLHVELPENIDKQSPTMTLIYDENGQLLWAQRDVPWLMKMIQPDWLKSNGFHEIEADVNDTSLLLSGDHSIQQQLQEVREDDDDAEMTHSVAVNVYPATSRMPKLTIVVVDTIPVELKSSYMVWSWFIYVLSANLLLVIPLLWVAAWWSLRPIEALAKEVRELEEHNRELLNPATTRELTSLVRNLNRLLKSERERYDKYRTTLTDLTHSLKTPLXXLQXXLRSLRSEKMSVSDAEPVMLEQISRISQQIGYYLHRASMRGGTLLSRELHPVAPLLDNLTSALNKVYQRKGVNISLDISPEISFVGEQNDFVEVMGNVLDNACKYCLEFVEISARQTDEHLYIVVEDDGPGIPLSKREVIFDRGQRVDTLRPGQGVGLAVAREITEQYEGKIVAGESMLGGARMEVIFGRQHSAPKDE

Variants of: B1
Assay: enrichment ratio after two sorts for PhoP signalling (ratio (wild type AVST 3.29)); higher = more functional
Details: with PhoP (E. coli)

| Variant | enrichment ratio |
| --- | --- |
| FQLP | ≤ 0.25 |
| NGMV | 14 |
| DAML | ≤ 0.25 |
| INFV | ≤ 0.25 |
| HWDR | ≤ 0.25 |
| SHQQ | ≤ 0.25 |
| TFFV | ≤ 0.25 |
| ESSL | ≤ 0.25 |
| DLKK | ≤ 0.25 |
| ELYG | ≤ 0.25 |
| AFYQ | ≤ 0.25 |
| FTIV | ≤ 0.25 |
| TNAT | 11 |
| ININ | ≤ 0.25 |
| WPWT | ≤ 0.25 |
| WNDY | ≤ 0.25 |
| ADCR | ≤ 0.25 |
| YNLW | ≤ 0.25 |
| LTDA | ≤ 0.25 |
| HFPH | ≤ 0.25 |
| RVSY | ≤ 0.25 |
| SWFC | ≤ 0.25 |
| QRVG | ≤ 0.25 |
| NRNM | ≤ 0.25 |
| NHSF | ≤ 0.25 |

| Variant | enrichment ratio |
| --- | --- |
| VSPL | ≤ 0.25 |
| WNFQ | ≤ 0.25 |
| ECQN | ≤ 0.25 |
| VVYH | ≤ 0.25 |
| FGIY | ≤ 0.25 |
| HQTE | ≤ 0.25 |
| IGKS | ≤ 0.25 |
| EFEH | ≤ 0.25 |
| VWLW | ≤ 0.25 |
| MFFI | ≤ 0.25 |
| MPAF | ≤ 0.25 |
| WPVE | ≤ 0.25 |
| SAFA | ≤ 0.25 |
| EYKP | ≤ 0.25 |
| PMYP | ≤ 0.25 |
| INPH | ≤ 0.25 |
| TTPH | ≤ 0.25 |
| PNII | ≤ 0.25 |
| SPAK | ≤ 0.25 |
| MTVP | ≤ 0.25 |
| PLFH | ≤ 0.25 |
| TYHG | ≤ 0.25 |
| QYFA | ≤ 0.25 |
| GAHS | ≤ 0.25 |
| TFTV | 7.62 |

| Variant | enrichment ratio |
| --- | --- |
| NYEL | ≤ 0.25 |
| MAKS | ≤ 0.25 |
| TSRR | ≤ 0.25 |
| RTDW | ≤ 0.25 |
| PHIP | ≤ 0.25 |
| TLEI | 3.75 |
| RDSW | ≤ 0.25 |
| IFSE | ≤ 0.25 |
| ETRD | ≤ 0.25 |
| EPPT | ≤ 0.25 |
| KPVD | ≤ 0.25 |
| PIYP | ≤ 0.25 |
| GGTH | ≤ 0.25 |
| MACQ | 5.74 |
| NARG | ≤ 0.25 |
| VYHE | ≤ 0.25 |
| VSGW | ≤ 0.25 |
| LFMA | ≤ 0.25 |
| TMYH | ≤ 0.25 |
| VSIQ | ≤ 0.25 |
| EFSN | ≤ 0.25 |
| VQYQ | ≤ 0.25 |
| PAQA | ≤ 0.25 |
| FMFT | ≤ 0.25 |
| HFVW | ≤ 0.25 |

| Variant | enrichment ratio |
| --- | --- |
| PGCK | ≤ 0.25 |
| ICMM | 7.08 |
| FMVT | ≤ 0.25 |
| EQIA | ≤ 0.25 |
| FTFM | ≤ 0.25 |
| GICN | 13.8 |
| IGYP | ≤ 0.25 |
| HNWK | ≤ 0.25 |
| DEVL | ≤ 0.25 |
| LHLS | ≤ 0.25 |
| VYFG | ≤ 0.25 |
| SGKH | ≤ 0.25 |
| FMGT | ≤ 0.25 |
| WVYW | ≤ 0.25 |
| LTSW | ≤ 0.25 |
| VQCN | ≤ 0.25 |
| GWMK | ≤ 0.25 |
| IQCS | ≤ 0.25 |
| TSFY | 6.35 |
| RAPK | ≤ 0.25 |
| DQCS | ≤ 0.25 |
| KFQP | ≤ 0.25 |
| HFFN | ≤ 0.25 |
| EYNP | ≤ 0.25 |
| GDNV | ≤ 0.25 |

| Variant | enrichment ratio |
| --- | --- |
| EQCC | ≤ 0.25 |
| WFNW | ≤ 0.25 |
| FPNT | ≤ 0.25 |
| MPPN | ≤ 0.25 |
| HYTY | ≤ 0.25 |
| AEWS | 8.72 |
| ICAY | ≤ 0.25 |
| DSDD | ≤ 0.25 |
| ISGS | ≤ 0.25 |
| RPTM | ≤ 0.25 |
| HHRA | ≤ 0.25 |
| SKCF | 13.8 |
| NPMA | ≤ 0.25 |
| MPNK | ≤ 0.25 |
| EYLL | ≤ 0.25 |
| FMSQ | ≤ 0.25 |
| SDIW | ≤ 0.25 |
| PKDS | ≤ 0.25 |
| GSAH | ≤ 0.25 |
| DQTS | ≤ 0.25 |
| TPLL | ≤ 0.25 |
| AGYP | ≤ 0.25 |
| KCKM | ≤ 0.25 |
| AWFS | ≤ 0.25 |
| TKDY | ≤ 0.25 |

| Variant | enrichment ratio |
| --- | --- |
| DSEI | ≤ 0.25 |
| YNKN | ≤ 0.25 |
| QSRA | ≤ 0.25 |
| NLVM | ≤ 0.25 |
| AQRH | ≤ 0.25 |
| HTTW | ≤ 0.25 |
| LDMC | ≤ 0.25 |
| MLCH | ≤ 0.25 |
| NVQR | ≤ 0.25 |
| MNAN | 6.51 |
| AAST | 2.87 |
| KAFN | ≤ 0.25 |
| GLCW | 2.02 |
| TKWM | 8.17 |
| TCAD | ≤ 0.25 |
| WIVR | ≤ 0.25 |
| QFGS | ≤ 0.25 |
| WYQW | ≤ 0.25 |
| IMQR | ≤ 0.25 |
| EQHV | ≤ 0.25 |
| TQNI | ≤ 0.25 |
| KMQE | ≤ 0.25 |
| NWQS | ≤ 0.25 |
| NLRI | ≤ 0.25 |
| GNDH | ≤ 0.25 |

| Variant | enrichment ratio |
| --- | --- |
| YERK | ≤ 0.25 |
| AIRW | ≤ 0.25 |
| NKHL | ≤ 0.25 |
| MDSI | 1.39 |
| MCVT | ≤ 0.25 |
| WKDH | ≤ 0.25 |
| AATL | 7.86 |
| FEPF | ≤ 0.25 |
| STCG | 9.46 |
| HGML | 21.6 |
| GPFT | ≤ 0.25 |
| HSQI | 1.32 |
| DEGS | ≤ 0.25 |
| QIWY | ≤ 0.25 |
| NWSF | ≤ 0.25 |
| ELEL | ≤ 0.25 |
| LNQQ | ≤ 0.25 |
| AAPF | ≤ 0.25 |
| FIIA | ≤ 0.25 |
| NWLC | ≤ 0.25 |
| VNPW | 1.58 |
| NRQH | ≤ 0.25 |
| WLPK | ≤ 0.25 |
| FLPC | ≤ 0.25 |
| EVCI | ≤ 0.25 |

| Variant | enrichment ratio |
| --- | --- |
| PHIW | ≤ 0.25 |
| VHQQ | ≤ 0.25 |
| LEPR | ≤ 0.25 |
| HELD | ≤ 0.25 |
| PFDE | ≤ 0.25 |
| SQSW | ≤ 0.25 |
| IHWI | ≤ 0.25 |
| HCMF | ≤ 0.25 |
| ITQL | ≤ 0.25 |
| GTHR | ≤ 0.25 |
| RCQR | ≤ 0.25 |
| RRWA | ≤ 0.25 |
| VAVG | ≤ 0.25 |
| WAYK | ≤ 0.25 |
| TTSH | 8.44 |
| HRVG | ≤ 0.25 |
| GQTR | ≤ 0.25 |
| DERH | ≤ 0.25 |
| WDHS | ≤ 0.25 |
| IHFL | ≤ 0.25 |

From a collection of fitness landscapes (doi:10.1126/science.1257360)
